Source: the supplement of paper PMC12462457
Several values for one entry are separate records, joined by “and”; a condition that tells them apart may be missing. Equal entries are not always repeated. Structures can show the parent of a compound that is named as a salt. ± gives the standard deviation of the averaged measurements. Some of the results follow.

System: OVCAR8
Assay: cell count relative to DMSO vehicle (fold change); OVCAR8 is a high-grade serous ovarian cancer line and CX-5461 an RNA polymerase I inhibitor; higher = more surviving senescent cells (less killing)
Conditions: senescence inducer: CX-5461 3 µM 48 h, then 6 d recovery (CX senescent), exposure time 24 h

Row | Structure (SMILES) | cell count (compound dose 1 µM) | cell count (compound dose 5 µM)
1 | Cc1c(C(=O)Nc2ccc(Oc3ccnc4[nH]cc(-c5ccccc5)c34)c(F)c2)c(=O)n(-c2ccc(F)cc2)n1C | 1.31 ± 0.28 | 1.49 ± 0.2
2 | COc1ccc(-c2ccc3c(N4CCOC[C@@H]4C)nc(N4CCOC[C@@H]4C)nc3n2)cc1CO | 0.959 ± 0.03 | 0.941 ± 0.11
3 | COc1cc(C)c(/C=C/C(C)=C/C=C/C(C)=C/C(=O)O)c(C)c1C [Acitretin] | 1.11 ± 0.17 | 0.982 ± 0.23
4 | C[n+]1cccc(C(=O)[O-])c1 | 1.06 ± 0.11 | 1.11 ± 0.12
5 | COc1cc2c(NC3CCN(C)CC3)cc(-c3ccc(C)o3)nc2cc1OCCCN1CCCC1 | 1.11 ± 0.072 | 1.24 ± 0.14
6 | C/C(=N\NC(=S)N1CCC1)c1ccccn1 | 1.18 ± 0.22 | 1.43 ± 0.15
7 | O=c1[nH]c(=O)n([C@H]2C[C@H](O)[C@@H](CO)O2)cc1F [Floxuridine] | 0.998 ± 0.21 | 1.08 ± 0.15
8 | O=C1C(=O)N(Cc2ccc(Cl)c(Cl)c2)c2ccccc21 | 0.966 ± 0.16 | 1.05 ± 0.27
9 | COc1cccc(-c2cc(F)c(Nc3ncccc3C(=O)O)c(F)c2)c1 | 1.05 ± 0.17 | 1.1 ± 0.13
10 | O=C(O)C(Cc1ccccc1[N+](=O)[O-])=NNc1nc(-c2ccc(Cl)c(Cl)c2)cs1 (mixture of isomers) | 1.21 ± 0.2 | 1.18 ± 0.036
11 | CCC(C)(C)C(=O)C(=O)N1CCC[C@H]1C(=O)OCCCc1cccnc1 | 0.819 ± 0.26 | 1.21 ± 0.024
12 | CN1CCCC(CN2c3ccccc3Sc3ccccc32)C1 (stereo unspecified) [Mepazine (hydrochloride)] | 1.03 ± 0.047 | 0.949 ± 0.17
13 | CN[C@@H](C)C(=O)N[C@H](C(=O)N1CCC[C@H]1C(=O)Nc1snnc1-c1ccccc1)C1CCCCC1 | 0.624 ± 0.29 | 0.769 ± 0.061
14 | O=C(/C=C/c1ccc2ccc(C(F)(F)F)cc2n1)c1ccncc1 | 1.21 ± 0.13 | 0.135 ± 0.05
15 | Cc1ccc(/C=N/NC(=O)c2ccccc2Oc2ccccc2)o1 | 1.17 ± 0.25 | 1.02 ± 0.3
16 | CC(C)(O)CC[C@@H](O)[C@](C)(O)[C@H]1CC[C@@]2(O)C3=CC(=O)[C@@H]4C[C@@H](O)[C@@H](O)C[C@]4(C)[C@H]3CC[C@]12C | 1.08 ± 0.07 | 1.03 ± 0.13
17 | CCC[C@H](NC(=O)/C(C#N)=C/c1cccc(Br)n1)c1ccccc1 [Degrasyn] | 1.03 ± 0.26 | 0.0685 ± 0.005
18 | CC(=O)Nc1c(I)c(NC(C)=O)c(I)c(C(=O)O)c1I | 1.16 ± 0.19 | 1.17 ± 0.17
19 | CC(=O)Nc1c(I)c(NC(C)=O)c(I)c(C(=O)O)c1I [Sodium diatrizoate] | 1.13 ± 0.12 | 1.01 ± 0.15
20 | O=C(Nc1cccc(-c2nncn2C2CC2)c1)c1cc(-n2cnc(C3CC3)c2)ccn1 | 1.16 ± 0.33 | 1.19 ± 0.31
21 | O=c1n(CC2CO2)c(=O)n(CC2CO2)c(=O)n1CC1CO1 (stereo unspecified) [Triglycidyl isocyanurate] | 1.21 ± 0.2 | 1.34 ± 0.32
22 | N#CN=C(NCCCCCCOc1ccc(Cl)cc1)Nc1ccncc1 | 1.06 ± 0.14 | 1.02 ± 0.11

Row | Structure (SMILES) | cell count (compound dose 1 µM) | cell count (compound dose 5 µM)
23 | CCOC(=O)c1ccc(N2NC(=O)C(=Cc3ccc([N+](=O)[O-])o3)C2=O)cc1 | 1.07 ± 0.15 | 1.03 ± 0.25
24 | CCNC(=O)c1noc(-c2cc(Cl)c(O)cc2O)c1-c1ccc(OC)cc1 | 1.22 ± 0.28 | 1.34 ± 0.15
25 | CC(C)=CCC[C@](C)(O[C@@H]1O[C@H](CO)[C@@H](O)[C@H](O)[C@H]1O)[C@H]1CC[C@]2(C)[C@@H]1[C@H](O)C[C@@H]1[C@@]3(C)CC[C@H](O)C(C)(C)[C@@H]3[C@@H](O[C@@H]3O[C@H](CO)[C@@H](O)[C@H](O)[C@H]3O[C@@H]3OC[C@@H](O)[C@H](O)[C@H]3O)C[C@]12C [Notoginsenoside R1] | 1.06 ± 0.14 | 1.1 ± 0.2
26 | C/C=C(/C)C(=O)OC(C)(C)[C@@H]1Cc2c(ccc3ccc(=O)oc23)O1 [Columbianadin] | 1.08 ± 0.088 | 1.04 ± 0.046
27 | COC(=O)CC[C@H](NC(=O)[C@H](CC(=O)OC)NC(=O)OCc1ccccc1)C(=O)N[C@H](C(=O)N[C@@H](CC(=O)OC)C(=O)CF)C(C)C | 1.03 ± 0.11 | 0.999 ± 0.076
28 | C[C@]12C=CC(=O)C=C1CC[C@@H]1[C@@H]2C(=O)C[C@@]2(C)[C@H]1CC[C@]2(O)C(=O)CO | 1.15 ± 0.086 | 1.14 ± 0.035
29 | Fc1ccc(Nc2nc3ccccc3nc2Nc2ccc(F)cc2)cc1 | 0.898 ± 0.11 | 1.03 ± 0.19
30 | Oc1ccc(Nc2nc(-c3ccc(Cl)cc3)cs2)cc1 | 1.16 ± 0.047 | 1.07 ± 0.057
31 | O=C1O[C@H]2[C@@H]3OC(=O)c4cc(O)c(O)c(O)c4-c4c(cc(O)c(O)c4O)C(=O)OC[C@H]2O[C@@H](OC(=O)c2cc(O)c(O)c(O)c2)[C@@H]3OC(=O)c2cc(O)c(O)c3c2[C@@H]2C1=CC(=O)[C@](O)(O3)C2(O)O [Geraniin] | 1.15 ± 0.26 | 1.05 ± 0.18
32 | N[C@@H]1CCCN(c2c(/C=C3\SC(=O)NC3=O)cccc2-c2ccccc2)C1 | 1.01 ± 0.37 | 0.959 ± 0.16
33 | CO[C@H]1C[C@@H]2CC[C@@H](C)[C@@](O)(O2)C(=O)C(=O)N2CCCC[C@H]2C(=O)O[C@H]([C@H](C)C[C@@H]2CC[C@@H](O)[C@H](OC)C2)CC(=O)[C@H](C)/C=C(\C)[C@@H](O)[C@@H](OC)C(=O)[C@H](C)C[C@H](C)/C=C/C=C/C=C/1C [Rapamycin] | 1.19 ± 0.04 | 1.16 ± 0.13
34 | Cc1[nH]c(/C=C2\C(=O)Nc3ccccc32)c(C)c1CCC(=O)O [Orantinib] | 0.926 ± 0.11 | 0.939 ± 0.18
35 | CCOc1ccc(-c2cn(C)nc2-c2cc(OC)c(OC)c(OC)c2)cc1 [Tubulin inhibitor 1] | 1.11 ± 0.044 | 1.33 ± 0.059
36 | COc1cc(OC)cc(N(CCNC(C)C)c2ccc3ncc(-c4cnn(C)c4)nc3c2)c1 [Erdafitinib] | 0.966 ± 0.21 | 0.751 ± 0.0085
37 | COc1cc2c(cc1OC)-c1cc3ccc(OC)c(OC)c3c[n+]1CC2 | 1.03 and 1.1 | 1 and 1.09
38 | Cc1cc(-c2nc(-c3ccc(OC(F)(F)F)cc3)no2)nn1Cc1ccnc(N2CCN(C3CC3)CC2)c1 | 1.08 ± 0.1 | 1.01 ± 0.26
39 | CSc1cccc(Nc2ncc3cc(-c4c(Cl)cccc4Cl)c(=O)n(C)c3n2)c1 | 0.216 ± 0.15 | 0.059 ± 0.04
40 | Cc1c(-c2ccc(N3CCc4cccc(C(=O)Nc5nc6ccccc6s5)c4C3)nc2C(=O)O)cnn1CC12CC3CC(CC(C3)C1)C2 | 1.02 ± 0.09 | 1.087 ± 0.0014
41 | Cc1cc(N2CCOCC2)ccc1Nc1nc(NC2CCCCC2)c2[nH]cnc2n1 | 1.17 ± 0.23 | 1.11 ± 0.17
42 | O=c1c(-c2ccc(O)cc2)coc2cc(O)cc(O)c12 | 0.936 ± 0.13 | 1.14 ± 0.18
43 | Cc1nc(Nc2n[nH]c3c2CN(C(=O)N[C@H](CN(C)C)c2ccccc2)C3(C)C)c2sccc2n1 | 0.83 ± 0.085 | 0.405 ± 0.011
